# According to article PMC4336329 (PLoS ONE, 2015):
# Among all 310,000 compounds or so, about 14,000 (4.5%) showed an effect of 50% or more. The effect is printed as a negative number. Some of the results follow.
# Molecular target: human ether-à-go-go-related gene (hERG) potassium channel (human, UniProt Q12809)
# Experiment: primary screen, population patch clamp on CHO cells stably expressing hERG
# 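Also: peak tail current of the secondary pulse compared with the same well before compound.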
# Chain of human ether-à-go-go-related gene (hERG) potassium channel (Q12809 whole entry, looked up): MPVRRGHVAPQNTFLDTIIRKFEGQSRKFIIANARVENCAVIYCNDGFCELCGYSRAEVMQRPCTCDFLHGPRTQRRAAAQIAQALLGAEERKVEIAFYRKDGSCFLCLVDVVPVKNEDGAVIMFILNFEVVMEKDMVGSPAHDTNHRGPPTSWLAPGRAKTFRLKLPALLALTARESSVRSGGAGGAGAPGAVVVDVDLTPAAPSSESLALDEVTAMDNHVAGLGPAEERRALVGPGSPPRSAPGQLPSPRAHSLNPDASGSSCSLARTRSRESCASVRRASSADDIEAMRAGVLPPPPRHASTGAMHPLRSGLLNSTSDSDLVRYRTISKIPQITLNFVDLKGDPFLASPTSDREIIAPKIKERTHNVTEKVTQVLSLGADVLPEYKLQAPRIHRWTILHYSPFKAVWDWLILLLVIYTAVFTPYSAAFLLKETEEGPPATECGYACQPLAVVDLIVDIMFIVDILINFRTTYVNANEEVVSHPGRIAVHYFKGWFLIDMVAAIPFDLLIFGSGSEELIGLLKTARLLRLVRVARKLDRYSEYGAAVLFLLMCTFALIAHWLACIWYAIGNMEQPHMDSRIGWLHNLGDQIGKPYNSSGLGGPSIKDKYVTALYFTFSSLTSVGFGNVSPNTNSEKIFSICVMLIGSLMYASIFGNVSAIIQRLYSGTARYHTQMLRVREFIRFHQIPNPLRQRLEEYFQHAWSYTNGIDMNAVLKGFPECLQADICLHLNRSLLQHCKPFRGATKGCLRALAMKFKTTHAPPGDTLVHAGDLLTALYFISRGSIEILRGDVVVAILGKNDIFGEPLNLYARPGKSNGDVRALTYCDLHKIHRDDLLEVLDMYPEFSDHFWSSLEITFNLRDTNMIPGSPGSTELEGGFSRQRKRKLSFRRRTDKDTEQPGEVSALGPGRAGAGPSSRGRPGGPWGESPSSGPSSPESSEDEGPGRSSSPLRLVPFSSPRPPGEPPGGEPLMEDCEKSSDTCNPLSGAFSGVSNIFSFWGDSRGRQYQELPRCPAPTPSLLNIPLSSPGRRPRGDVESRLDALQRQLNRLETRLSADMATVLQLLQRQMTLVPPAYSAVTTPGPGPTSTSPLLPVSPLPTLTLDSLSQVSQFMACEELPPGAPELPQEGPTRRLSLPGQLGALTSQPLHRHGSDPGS
row,Structure (SMILES),"hERG current change (%, negative = inhibition) at 10uM [%]"
1,CCNCCC(=O)N1c2ccccc2Sc2ccc(NC(=O)OCC)cc21.Cl,-29.6
2,NC(=O)[C@@H]1CCCN1C(=O)c1cc(COc2ccc3c(c2)CCCC3)on1,-15
3,O=C(Nc1cccnc1)c1ccc(Cl)c(S(=O)(=O)N2CCOCC2)c1,-1.56
4,CCOC(=O)N1CCN(C(=O)c2cnsn2)CC1,8.52
5,CCCN(CCC)S(=O)(=O)c1ccc(C(=O)N2CCN(C)CC2)cc1,3.58
6,Clc1ccccc1C1=CC(c2ccco2)n2nnnc2N1 (stereo not shown),1.89
7,CC(C)Sc1nc(N2CCCC2)c2c(c1C#N)CC(C)(C)OC2,-16.5
8,CC(C)c1nnc(NC(=O)CCc2ccccc2)s1,21.6
9,CCOC(=O)CSc1nnc(-c2cccnc2)n1C,12.3
10,COC(=O)c1c(NC(=O)COC(=O)c2ccccn2)sc(C)c1C,3.74
11,O=C(Oc1ccc2c(c1)OCO2)c1ccc(F)cc1Cl,-4.08
12,COc1cccc(-n2c(CN3CCOCC3)nc3ccc([N+](=O)[O-])cc3c2=O)c1,4.51
13,CSc1ccccc1OCc1cc(C(=O)N[C@H]2CCCCNC2=O)no1,10.7
14,CCc1noc(C)c1C(=O)OCC(=O)Nc1ccc(F)cc1Cl,14.3
15,Nc1nnc(SCC(=O)NC2CCCC2)s1,14.3
16,CCOc1ccc2nc(NC(=O)CN3CCN(c4ccccn4)CC3)sc2c1,-7.47
17,Cc1ccc(Cn2c(SCCN3CCOCC3)nc3c2c(=O)n(C)c(=O)n3C)cc1,-28
18,O=C(Cn1c(C(F)(F)F)nc2ccccc21)NCCN1CCCC1,4.91
19,COc1ccc(C(C)=O)cc1CSc1nc2cc(Cl)ccc2o1,9.66
20,CC(=O)c1cccc(NC(=O)CCS(=O)(=O)c2cccc3nsnc23)c1,6.56

row,Structure (SMILES),"hERG current change (%, negative = inhibition) at 10uM [%]"
1,COC(=O)/C(=C1\Oc2ccc(C(C)(C)C)cc2S1)C(F)(F)F,2.47
2,COc1ccc(-c2[nH]ncc2C2N=C(N)Nc3nc4ccccc4n32)cc1 (stereo not shown),27.9
3,COc1cc(OC)cc(C(=O)N[C@H](C(=O)OCC(N)=O)C(C)C)c1,4.3
4,COc1ccc(C2C(C(=O)OCC3CCCO3)=C(C)NC3=C2C(=O)CC(c2ccco2)C3)cc1O (stereo not shown),5.72
5,N#Cc1ccccc1COC(=O)c1ccc(Br)o1,5.75
6,Cc1ccccc1N1CCN(C(=O)[C@@H]2CCCN2C2=NS(=O)(=O)c3ccccc32)CC1,-14.3
7,CCOC(=O)/C=C/C(=O)NNC(=O)c1ccccc1Cl,6.55
8,O=C(CN1C(=O)c2ccccc2C1=O)Nc1cccc([N+](=O)[O-])c1,13.9
9,COc1ccc(C(C(=O)NC2CCCC2)N(Cc2cccnc2)C(=O)Cc2cccs2)c(OC)c1 (stereo not shown),1.08
10,CCc1c(C(C)S(=O)(=O)c2ccccc2)[nH]c(=O)n1CC (stereo not shown),9.71
11,Cc1ccc(C(=O)Nc2ccc(S(=O)(=O)NC3=NCCCCC3)cc2)c(C)c1,-9.74
12,Cc1ccc2c(c1)c1c(n2CC(O)CNC2CCCCC2)CCCC1.Cl (stereo not shown),-37.4
13,CCc1ccc2[nH]c(=O)c(CN(CC3CCCO3)C(=S)NCc3ccco3)cc2c1 (stereo not shown),-21.6
14,O=C(Nc1nccs1)c1c(O)c2cccc3c2n(c1=O)CCC3,9.28
15,O=C(CN1CCN(S(=O)(=O)c2ccc(Br)cc2)CC1)Nc1ccc(F)cc1F,-73.5
16,CCSc1ncc(/C=N/Nc2ccc(F)cc2)n1C,-31.8
17,S=C(Nc1ccccc1)N1CCCCC1,10.6
18,CCOC(=O)/C(=C\c1cccnc1)C(=O)c1cc(C(C)=O)c(Nc2ccccc2)s1,-34.6
19,CCOc1ccc([N+](=O)[O-])c(N)c1,0.0571
20,CC1(C)CC(=O)C(C2NCCc3ccccc32)=C(O)C1 (stereo not shown),19.5

row,Structure (SMILES),"hERG current change (%, negative = inhibition) at 10uM [%]"
1,COc1ccc(/C=N/N2CCN(C3c4ccccc4-c4ccccc43)CC2)cc1OC,6.65
2,CN(c1ccccc1C(=O)Nc1ccc2c(c1)OCO2)S(C)(=O)=O,-1.26
3,CCC(=O)N=c1sc2ccccc2n1-c1ccccc1,17.8
4,COC(=O)c1ccc(COc2ccccc2OC)o1,4.67
5,Fc1cc(F)cc(-c2c(-c3ccccc3)ncc3ccc(F)cc23)c1,14.2
6,O=C1c2ccccc2C(=O)N1CC(O)COCc1ccccc1 (stereo not shown),19.4
7,O=C(Cn1c(=O)n(Cc2ccccc2)c(=O)c2ccccc21)NCc1ccco1,-4.53
8,Cc1ccc(C2=NN(S(C)(=O)=O)C(c3cccs3)C2)cc1 (stereo not shown),-4.62
9,COC(=O)c1[nH]c2ccccc2c1NC(=O)C(C)N1CCN(C(=O)c2ccco2)CC1 (stereo not shown),-35.3
10,CN(C)c1ccc(C=Nc2cnn(C)c2C(N)=O)cc1,0.759
11,CCC(=O)Nc1ccc(OCc2nnc3c4ccccc4c(C)nn23)cc1,-5.77
12,Cc1ccc(S(=O)(=O)c2c(C)nn(-c3ccccc3)c2OC(=O)c2ccco2)cc1,1.19
13,O=C(CCC(=O)N1CCOc2ccccc21)Nc1cc(F)ccc1F,-8.84
14,Cc1cccc(NNC(N)=S)c1C,-5.6
15,CC(NCc1cccs1)c1ccccc1.Cl (stereo not shown),11.1
16,C/C(=N\O)c1noc(C)c1C(=O)Nc1nccs1,19.2
17,CCn1c(SCC(=O)OCc2ccccc2)nc2c1c(=O)n(C)c(=O)n2C,-15
18,CCN1CCN(Cc2nc3ccc([N+](=O)[O-])cc3c(=O)n2-c2ccccc2F)CC1,17.9
